In PMC5838220:
No constants are given. Whether binding was seen depends on the method and setting. For part of these data: In cells and extracts the contact can be indirect. Some results given as binding are weak or reduced against the parent protein; the word gives no strength. For part of these data: Sequences can lack the tags named with a protein.

By UniProt entry, the sequences of proteins in these tests, tags left out.
UniProt Q9HB90: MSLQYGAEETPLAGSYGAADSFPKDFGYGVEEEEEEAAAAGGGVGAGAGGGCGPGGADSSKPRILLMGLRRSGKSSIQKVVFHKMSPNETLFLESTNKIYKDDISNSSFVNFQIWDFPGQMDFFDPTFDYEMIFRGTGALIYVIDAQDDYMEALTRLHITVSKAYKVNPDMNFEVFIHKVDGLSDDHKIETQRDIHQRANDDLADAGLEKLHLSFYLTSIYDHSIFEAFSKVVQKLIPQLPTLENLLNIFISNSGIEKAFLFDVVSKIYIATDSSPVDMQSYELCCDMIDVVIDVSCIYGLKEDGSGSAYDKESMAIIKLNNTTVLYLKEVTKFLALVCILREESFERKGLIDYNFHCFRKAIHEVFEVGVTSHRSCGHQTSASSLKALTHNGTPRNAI
UniProt Q7L523: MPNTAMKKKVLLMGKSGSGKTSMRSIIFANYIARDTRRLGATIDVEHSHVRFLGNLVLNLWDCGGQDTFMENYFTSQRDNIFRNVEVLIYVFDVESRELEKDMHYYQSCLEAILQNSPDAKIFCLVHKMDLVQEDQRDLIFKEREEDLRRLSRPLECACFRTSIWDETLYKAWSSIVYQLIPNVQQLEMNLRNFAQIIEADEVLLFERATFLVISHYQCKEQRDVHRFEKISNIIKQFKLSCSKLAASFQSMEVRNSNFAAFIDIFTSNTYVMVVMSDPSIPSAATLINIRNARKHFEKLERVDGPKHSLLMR
UniProt Q9UBN7: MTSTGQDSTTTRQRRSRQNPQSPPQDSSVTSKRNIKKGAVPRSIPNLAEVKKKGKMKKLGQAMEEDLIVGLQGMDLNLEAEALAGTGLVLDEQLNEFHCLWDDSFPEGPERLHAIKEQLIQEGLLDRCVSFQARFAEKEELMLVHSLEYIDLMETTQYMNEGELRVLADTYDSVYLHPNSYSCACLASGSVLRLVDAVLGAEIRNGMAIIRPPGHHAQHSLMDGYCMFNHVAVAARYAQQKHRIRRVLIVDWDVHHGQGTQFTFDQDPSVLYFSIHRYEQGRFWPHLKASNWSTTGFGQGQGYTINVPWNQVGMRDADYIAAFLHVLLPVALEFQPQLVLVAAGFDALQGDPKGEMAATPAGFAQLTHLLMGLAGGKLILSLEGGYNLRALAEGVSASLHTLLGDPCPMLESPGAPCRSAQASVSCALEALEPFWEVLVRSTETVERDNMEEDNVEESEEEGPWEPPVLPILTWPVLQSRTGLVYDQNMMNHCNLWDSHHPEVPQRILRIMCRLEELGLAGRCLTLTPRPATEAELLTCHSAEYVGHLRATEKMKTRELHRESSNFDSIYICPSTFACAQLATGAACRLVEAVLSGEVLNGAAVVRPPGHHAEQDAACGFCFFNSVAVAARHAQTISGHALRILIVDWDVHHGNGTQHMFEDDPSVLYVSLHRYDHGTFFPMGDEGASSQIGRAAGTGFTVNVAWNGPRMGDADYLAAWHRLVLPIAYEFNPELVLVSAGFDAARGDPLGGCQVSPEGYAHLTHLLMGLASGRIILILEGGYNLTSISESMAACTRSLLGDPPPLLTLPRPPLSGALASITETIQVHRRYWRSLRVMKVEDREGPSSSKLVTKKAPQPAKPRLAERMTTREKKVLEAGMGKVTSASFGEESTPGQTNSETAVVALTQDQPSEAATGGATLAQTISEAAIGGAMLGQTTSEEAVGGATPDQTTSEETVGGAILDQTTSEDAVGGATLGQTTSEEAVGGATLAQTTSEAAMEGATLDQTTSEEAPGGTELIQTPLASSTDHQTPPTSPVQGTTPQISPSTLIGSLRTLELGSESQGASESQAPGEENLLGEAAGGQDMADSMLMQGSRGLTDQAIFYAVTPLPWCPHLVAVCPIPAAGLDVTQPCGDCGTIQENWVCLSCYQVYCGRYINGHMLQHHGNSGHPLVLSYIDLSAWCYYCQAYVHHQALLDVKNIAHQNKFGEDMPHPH
UniProt Q8IVH8: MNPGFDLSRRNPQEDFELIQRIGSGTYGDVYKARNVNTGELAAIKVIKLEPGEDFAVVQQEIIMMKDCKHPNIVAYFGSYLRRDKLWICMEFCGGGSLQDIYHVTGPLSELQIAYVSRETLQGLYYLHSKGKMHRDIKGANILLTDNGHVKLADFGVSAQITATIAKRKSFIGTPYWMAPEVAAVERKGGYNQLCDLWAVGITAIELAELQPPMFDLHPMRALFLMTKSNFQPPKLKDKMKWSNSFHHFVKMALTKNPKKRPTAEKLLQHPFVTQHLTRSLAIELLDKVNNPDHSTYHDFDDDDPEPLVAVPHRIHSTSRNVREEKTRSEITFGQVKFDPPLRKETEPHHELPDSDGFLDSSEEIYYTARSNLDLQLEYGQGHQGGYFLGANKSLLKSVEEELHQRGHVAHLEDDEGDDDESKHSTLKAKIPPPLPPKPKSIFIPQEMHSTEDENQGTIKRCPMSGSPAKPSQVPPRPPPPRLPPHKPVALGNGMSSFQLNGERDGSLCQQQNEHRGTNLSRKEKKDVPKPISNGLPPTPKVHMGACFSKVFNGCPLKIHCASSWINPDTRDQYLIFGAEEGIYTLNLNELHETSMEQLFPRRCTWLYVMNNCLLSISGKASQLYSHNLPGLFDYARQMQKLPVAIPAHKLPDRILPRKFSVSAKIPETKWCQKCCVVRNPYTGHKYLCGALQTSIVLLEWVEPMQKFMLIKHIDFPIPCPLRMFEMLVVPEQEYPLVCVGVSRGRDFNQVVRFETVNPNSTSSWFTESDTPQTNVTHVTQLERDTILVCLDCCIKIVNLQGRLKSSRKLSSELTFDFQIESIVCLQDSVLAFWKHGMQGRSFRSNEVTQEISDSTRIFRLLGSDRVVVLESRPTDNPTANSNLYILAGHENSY

Legend:
[1] = molecular target: endogenous TFEB (human (endogenous in HEK293A)) (UniProt P19484); test: co-IP; HEK293A cells transfected with FLAG-tagged WT-MAP4K3, KD-MAP4K3 or HDAC6; endogenous TFEB immunoprecipitated and blotted for MAP4K3 (text; the legend says FLAG immunoprecipitates)
[2] = molecular target: Rag C (human (endogenous in HEK293A)) (UniProt Q9HB90); test: co-IP; RagC or RagA immunoprecipitates from lysates of HEK293A cells transfected with FLAG-tagged proteins, immunoblotted; for RagA cells in complete media or amino acid starved
[3] = molecular target: Rag A (human (endogenous in HEK293A)) (UniProt Q7L523); test: as above
[4] = molecular target: recombinant TFEB generated by in vitro transcription and translation (UniProt P19484); test: pull-down; FLAG immunoprecipitates (purified FLAG-tagged proteins from transfected HEK293A) incubated with in vitro transcribed and translated TFEB; pulled down with an anti-TFEB antibody, immunoblotted; only the binder purified
[5] = molecular target: T1, recombinant GST-TFEB amino acids 1-37 (UniProt P19484); test: pull-down; FLAG immunoprecipitates from transfected HEK293A incubated with recombinant GST-TFEB aa 1-37 or GST alone, then mixed with beads; eluate of GST-bound fractions blotted with anti-FLAG and anti-GST; both purified
T1 sequence: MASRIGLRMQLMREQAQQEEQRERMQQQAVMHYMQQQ

Question: For HDAC6-FLAG (from UniProt Q9UBN7 1-1215), which binding [1] is on record?
Answer: Its binding is “no binding”.

Question: For “WT-MAP4K3-FLAG (from UniProt Q8IVH8 1-894) (enzyme)”, which binding [1] is on record?
Answer: Its binding is “binds”.

Question: What about the binding [2] of the same substance?
Answer: The binding was “binds”.

Question: And the binding [3]?
Answer: The binding was “binds”.

Question: What about the binding [4] of the same substance?
Answer: Its binding is “binds”.

Question: What about the binding [5] of the same substance?
Answer: The binding was “binds”.
